The values that follow come from paper PMC3088716.

These are yes or no findings as the source states them, for the method shown. Binding seen in cells or lysates may run through a third protein. Some results given as binding are weak or reduced against the parent protein; the word gives no strength. Where a sequence is shown, tags or fusion partners need not be part of it.

Assay [1] addresses T1, HA-tagged Dnttip1 (mouse) (UniProt Q99LB0).
T1 sequence: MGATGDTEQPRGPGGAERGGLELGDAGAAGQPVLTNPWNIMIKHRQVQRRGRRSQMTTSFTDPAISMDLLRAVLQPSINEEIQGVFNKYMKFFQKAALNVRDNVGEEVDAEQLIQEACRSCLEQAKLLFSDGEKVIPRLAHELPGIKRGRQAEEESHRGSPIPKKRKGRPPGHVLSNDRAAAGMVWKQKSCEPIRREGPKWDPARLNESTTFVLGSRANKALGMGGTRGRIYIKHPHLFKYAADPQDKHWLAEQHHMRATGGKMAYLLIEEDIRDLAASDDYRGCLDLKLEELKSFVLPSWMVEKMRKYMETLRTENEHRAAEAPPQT
The assay can be described thus: co-IP; FLAG- and HA-tagged proteins co-expressed in HEK293 cells (harvested 24 hrs after transfection); whole cell lysates in MAPK buffer; agarose beads with anti-FLAG or anti-HA antibodies, 4°C, 2.5 hrs.

In another assay the target is T2, HA-tagged ZNF541 (mouse) (UniProt Q0GGX2).
T2 sequence: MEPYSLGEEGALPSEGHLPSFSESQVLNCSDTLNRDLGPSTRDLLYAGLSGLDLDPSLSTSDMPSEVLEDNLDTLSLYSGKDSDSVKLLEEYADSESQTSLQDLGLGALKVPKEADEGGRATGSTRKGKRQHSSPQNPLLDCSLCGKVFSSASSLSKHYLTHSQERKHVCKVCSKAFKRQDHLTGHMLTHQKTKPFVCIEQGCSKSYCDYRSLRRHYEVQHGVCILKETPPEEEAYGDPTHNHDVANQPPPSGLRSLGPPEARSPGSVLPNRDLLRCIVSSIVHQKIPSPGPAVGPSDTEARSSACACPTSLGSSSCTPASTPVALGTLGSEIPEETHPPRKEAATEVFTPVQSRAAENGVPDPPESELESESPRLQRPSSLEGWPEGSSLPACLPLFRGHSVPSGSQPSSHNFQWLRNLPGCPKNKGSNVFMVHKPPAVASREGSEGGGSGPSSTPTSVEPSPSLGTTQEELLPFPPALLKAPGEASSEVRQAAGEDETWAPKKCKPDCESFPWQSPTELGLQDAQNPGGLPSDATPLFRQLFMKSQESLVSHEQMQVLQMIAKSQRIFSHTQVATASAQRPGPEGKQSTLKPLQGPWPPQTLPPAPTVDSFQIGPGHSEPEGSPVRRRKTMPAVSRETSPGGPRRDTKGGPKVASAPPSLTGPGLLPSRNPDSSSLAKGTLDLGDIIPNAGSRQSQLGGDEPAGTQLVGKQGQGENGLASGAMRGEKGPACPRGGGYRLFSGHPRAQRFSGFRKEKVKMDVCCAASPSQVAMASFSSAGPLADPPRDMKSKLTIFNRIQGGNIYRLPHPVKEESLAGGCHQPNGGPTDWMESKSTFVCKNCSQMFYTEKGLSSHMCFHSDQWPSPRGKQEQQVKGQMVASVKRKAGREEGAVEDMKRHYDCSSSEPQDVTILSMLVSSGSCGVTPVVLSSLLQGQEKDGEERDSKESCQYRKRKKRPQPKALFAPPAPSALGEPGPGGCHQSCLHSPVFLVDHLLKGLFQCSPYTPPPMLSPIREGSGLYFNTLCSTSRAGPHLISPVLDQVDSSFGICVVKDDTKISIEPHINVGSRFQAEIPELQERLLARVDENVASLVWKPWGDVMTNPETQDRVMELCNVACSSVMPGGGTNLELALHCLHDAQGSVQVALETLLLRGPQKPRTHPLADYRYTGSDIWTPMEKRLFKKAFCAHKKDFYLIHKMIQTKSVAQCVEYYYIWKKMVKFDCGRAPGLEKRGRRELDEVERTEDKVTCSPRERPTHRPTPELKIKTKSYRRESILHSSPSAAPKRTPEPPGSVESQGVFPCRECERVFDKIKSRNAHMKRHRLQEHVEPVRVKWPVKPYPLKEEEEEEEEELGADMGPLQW
The assay is described as above.

B1: FLAG-tagged wild-type PKG-Iβ (enzyme, UniProt Q13976-2 1-686)
chain: MGTLRDLQYALQEKIEELRQRDALIDELELELDQKDELIQKLQNELDKYRSVIRPATQQAQKQSASTLQGEPRTKRQAISAEPTAFDIQDLSHVTLPFYPKSPQSKDLIKEAILDNDFMKNLELSQIQEIVDCMYPVEYGKDSCIIKEGDVGSLVYVMEDGKVEVTKEGVKLCTMGPGKVFGELAILYNCTRTATVKTLVNVKLWAIDRQCFQTIMMRTGLIKHTEYMEFLKSVPTFQSLPEEILSKLADVLEETHYENGEYIIRQGARGDTFFIISKGTVNVTREDSPSEDPVFLRTLGKGDWFGEKALQGEDVRTANVIAAEAVTCLVIDRDSFKHLIGGLDDVSNKAYEDAEAKAKYEAEAAFFANLKLSDFNIIDTLGVGGFGRVELVQLKSEESKTFAMKILKKRHIVDTRQQEHIRSEKQIMQGAHSDFIVRLYRTFKDSKYLYMLMEACLGGELWTILRDRGSFEDSTTRFYTACVVEAFAYLHSKGIIYRDLKPENLILDHRGYAKLVDFGFAKKIGFGKKTWTFCGTPEYVAPEIILNKGHDISADYWSLGILMYELLTGSPPFSGPDPMKTYNIILRGIDMIEFPKKIAKNAANLIKKLCRDNPSERLGNLKNGVKDIQKHKWFEGFNWEGLRKGTLTPPIIPSVASPTDTSNFDSFPEDNDEPPPDDNSGWDIDF
As to B1, the binding result (in assay [1]; in the assay with HA-tagged ZNF541 (mouse)) was “binds” in each case.
